Experimental findings from US20230213525A1, “DETECTING MICROBIAL INFECTION IN WOUNDS” (QUALIZYME DIAGNOSTICS GMBH & CO KG, priority 2016, published 2023) are described below.

The target in this assay is T1, Cathepsin (Homo sapiens, UniProt P08311).
T1 sequence (P08311 21-244): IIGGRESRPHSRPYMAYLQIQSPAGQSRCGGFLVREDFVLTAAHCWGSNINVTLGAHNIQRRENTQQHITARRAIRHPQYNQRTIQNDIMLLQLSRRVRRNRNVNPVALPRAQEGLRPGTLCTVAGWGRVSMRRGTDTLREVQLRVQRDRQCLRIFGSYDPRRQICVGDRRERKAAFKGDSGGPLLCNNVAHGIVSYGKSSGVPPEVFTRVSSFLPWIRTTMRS
To be noted: 5 µL, 3.0 mM substrate, 20 to 30 minutes.

Where two headings read alike, the source gives them in different places.

As for “N-succinyl-ala-ala-pro-phe-p-nitroanilide”, the Test response result (infected sputum samples A, B, C) is “yellow” and the Test response entry (non infected sputum samples D, E, F) was “No colour change”.
